Our source for the binding signal values is article PMC12820563, “FoxP3 forms a head-to-head dimer in vivo and stabilizes its multimerization on adjacent microsatellites”.

The other results are listed elsewhere or left out.

This assay concerns the target T1, MBP-FoxP1dN (Mus musculus, UniProt P58462 326-579).
T1 sequence: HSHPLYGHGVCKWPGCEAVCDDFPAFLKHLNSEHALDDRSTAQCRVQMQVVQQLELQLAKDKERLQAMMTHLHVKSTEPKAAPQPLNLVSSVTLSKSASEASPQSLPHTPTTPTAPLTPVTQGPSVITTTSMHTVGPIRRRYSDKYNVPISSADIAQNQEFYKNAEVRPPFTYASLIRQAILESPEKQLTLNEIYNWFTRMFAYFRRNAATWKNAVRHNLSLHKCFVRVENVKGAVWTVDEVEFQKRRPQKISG
The assay can be described thus: PD-seq (MBP pull-down with sequencing); 20 mM Tris-HCl pH 7.5, 100 mM NaCl, 1.5 mM MgCl2, 0.4 uM protein, 0.1 uM dsDNA library, 30 min, room temperature, amylose pull-down; high values mean tight binding. As to conditions: protein: recombinant; tags: His6-MBP; chain copies: 2; dsDNA, one strand shown. Put shortly:
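Binding is the reads-per-million enrichment of pull-down relative to input, pooled across replicates. For this, 0.4 µM His6-MBP-tagged mouse FoxP3 or FoxP1 fragment lacking the N-terminus, made in E. coli, was incubated with 0.1 µM Klenow-filled double-stranded degenerate DNA library for 30 min at room temperature in Tris pH 7.5 buffer with NaCl and MgCl2. Complexes bound to amylose resin were washed three times before proteinase K released the DNA for PCR barcoding and Illumina sequencing.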
In the case of “GATGATTGTTCTCCCAGCTGATGAATTCAATTTATCGAGTAAACAAATTTTCCTAATCTTTCTGTTCAAGCGCCATCTAC”, the binding signal was 1.19 RPM ratio (pull-down/input).
“GATGATTGTTCTCCCAGCTGATGAATTACAGGACTCGAGTAAACAAATTTTCCTAATCTTTCTGTTCAAGCGCCATCTAC”: the binding signal was 0.979 RPM ratio (pull-down/input).
The figure for “GATGATTGTTCTCCCAGCTGATGAATTGGCCTATTCGAGTAAACAAATTTTCCTAATCTTTCTGTTCAAGCGCCATCTAC” is 0.922 RPM ratio (pull-down/input); for “GATGATTGTTCTCCCAGCTGATGAATTGTGATCTTCGAGTAAACAAATTTTCCTAATCTTTCTGTTCAAGCGCCATCTAC” it is 1.22 RPM ratio (pull-down/input).
The figure for “GATGATTGTTCTCCCAGCTGATGAATTATCCGTATCGAGTAAACAAATTTTCCTAATCTTTCTGTTCAAGCGCCATCTAC” is 1.02 RPM ratio (pull-down/input); for “GATGATTGTTCTCCCAGCTGATGAATTTTCAGGTTCGAGTAAACAAATTTTCCTAATCTTTCTGTTCAAGCGCCATCTAC” it is 0.85 RPM ratio (pull-down/input).
With “GATGATTGTTCTCCCAGCTGATGAATTAGTAATATCGAGTAAACAAATTTTCCTAATCTTTCTGTTCAAGCGCCATCTAC” the figure was 1.18 RPM ratio (pull-down/input); with “GATGATTGTTCTCCCAGCTGATGAATTCATATTATCGAGTAAACAAATTTTCCTAATCTTTCTGTTCAAGCGCCATCTAC”, 1.24 RPM ratio (pull-down/input); with “GATGATTGTTCTCCCAGCTGATGAATTCGCGCACTCGAGTAAACAAATTTTCCTAATCTTTCTGTTCAAGCGCCATCTAC”, 0.879 RPM ratio (pull-down/input).
Turning to “GATGATTGTTCTCCCAGCTGATGAATTGTTTATCTCGAGTAAACAAATTTTCCTAATCTTTCTGTTCAAGCGCCATCTAC”, the binding signal is 2.68 RPM ratio (pull-down/input).
With “GATGATTGTTCTCCCAGCTGATGAATTGCGTCGATCGAGTAAACAAATTTTCCTAATCTTTCTGTTCAAGCGCCATCTAC” the figure was 1.04 RPM ratio (pull-down/input); with “GATGATTGTTCTCCCAGCTGATGAATTAAGCTGCTCGAGTAAACAAATTTTCCTAATCTTTCTGTTCAAGCGCCATCTAC”, 0.944 RPM ratio (pull-down/input); with “GATGATTGTTCTCCCAGCTGATGAATTCGTCGGGTCGAGTAAACAAATTTTCCTAATCTTTCTGTTCAAGCGCCATCTAC”, 0.832 RPM ratio (pull-down/input).
“GATGATTGTTCTCCCAGCTGATGAATTGGGATAATCGAGTAAACAAATTTTCCTAATCTTTCTGTTCAAGCGCCATCTAC”: the binding signal was 1.19 RPM ratio (pull-down/input).
The figure for “GATGATTGTTCTCCCAGCTGATGAATTGTCTCGATCGAGTAAACAAATTTTCCTAATCTTTCTGTTCAAGCGCCATCTAC” is 0.988 RPM ratio (pull-down/input); for “GATGATTGTTCTCCCAGCTGATGAATTCGCTGGGTCGAGTAAACAAATTTTCCTAATCTTTCTGTTCAAGCGCCATCTAC” it is 0.757 RPM ratio (pull-down/input); for “GATGATTGTTCTCCCAGCTGATGAATTCCAGACGTCGAGTAAACAAATTTTCCTAATCTTTCTGTTCAAGCGCCATCTAC” it is 0.819 RPM ratio (pull-down/input).
The figure for “GATGATTGTTCTCCCAGCTGATGAATTCTTGCTTTCGAGTAAACAAATTTTCCTAATCTTTCTGTTCAAGCGCCATCTAC” is 1.41 RPM ratio (pull-down/input); for “GATGATTGTTCTCCCAGCTGATGAATTATGATTTTCGAGTAAACAAATTTTCCTAATCTTTCTGTTCAAGCGCCATCTAC” it is 1.19 RPM ratio (pull-down/input).
With “GATGATTGTTCTCCCAGCTGATGAATTTTAGCATTCGAGTAAACAAATTTTCCTAATCTTTCTGTTCAAGCGCCATCTAC” the figure was 1.28 RPM ratio (pull-down/input); with “GATGATTGTTCTCCCAGCTGATGAATTGAGGTGGTCGAGTAAACAAATTTTCCTAATCTTTCTGTTCAAGCGCCATCTAC”, 0.761 RPM ratio (pull-down/input); with “GATGATTGTTCTCCCAGCTGATGAATTGCTGCCGTCGAGTAAACAAATTTTCCTAATCTTTCTGTTCAAGCGCCATCTAC”, 0.917 RPM ratio (pull-down/input).
As to “GATGATTGTTCTCCCAGCTGATGAATTCCCCCTCTCGAGTAAACAAATTTTCCTAATCTTTCTGTTCAAGCGCCATCTAC”, the binding signal was 0.802 RPM ratio (pull-down/input).
With “GATGATTGTTCTCCCAGCTGATGAATTAAGTAAGTCGAGTAAACAAATTTTCCTAATCTTTCTGTTCAAGCGCCATCTAC” the figure was 0.965 RPM ratio (pull-down/input).
The figure for “GATGATTGTTCTCCCAGCTGATGAATTTGGCGTCTCGAGTAAACAAATTTTCCTAATCTTTCTGTTCAAGCGCCATCTAC” is 0.85 RPM ratio (pull-down/input).
With “GATGATTGTTCTCCCAGCTGATGAATTAACTTTATCGAGTAAACAAATTTTCCTAATCTTTCTGTTCAAGCGCCATCTAC” the figure was 0.926 RPM ratio (pull-down/input).
For “GATGATTGTTCTCCCAGCTGATGAATTCTAAGGGTCGAGTAAACAAATTTTCCTAATCTTTCTGTTCAAGCGCCATCTAC”, the binding signal was 0.819 RPM ratio (pull-down/input).
Consider “GATGATTGTTCTCCCAGCTGATGAATTTGGAGCTTCGAGTAAACAAATTTTCCTAATCTTTCTGTTCAAGCGCCATCTAC”, for which the binding signal was 0.812 RPM ratio (pull-down/input).
“GATGATTGTTCTCCCAGCTGATGAATTCAGGCAGTCGAGTAAACAAATTTTCCTAATCTTTCTGTTCAAGCGCCATCTAC”: the binding signal is 0.864 RPM ratio (pull-down/input).
In the case of “GATGATTGTTCTCCCAGCTGATGAATTGGATGGATCGAGTAAACAAATTTTCCTAATCTTTCTGTTCAAGCGCCATCTAC”, the binding signal was 0.848 RPM ratio (pull-down/input).
The figure for “GATGATTGTTCTCCCAGCTGATGAATTGGACCAATCGAGTAAACAAATTTTCCTAATCTTTCTGTTCAAGCGCCATCTAC” is 0.964 RPM ratio (pull-down/input); for “GATGATTGTTCTCCCAGCTGATGAATTCACGATGTCGAGTAAACAAATTTTCCTAATCTTTCTGTTCAAGCGCCATCTAC” it is 0.92 RPM ratio (pull-down/input); for “GATGATTGTTCTCCCAGCTGATGAATTACCAAGGTCGAGTAAACAAATTTTCCTAATCTTTCTGTTCAAGCGCCATCTAC” it is 0.799 RPM ratio (pull-down/input).
The figure for “GATGATTGTTCTCCCAGCTGATGAATTCAGCAGGTCGAGTAAACAAATTTTCCTAATCTTTCTGTTCAAGCGCCATCTAC” is 0.755 RPM ratio (pull-down/input); for “GATGATTGTTCTCCCAGCTGATGAATTGTCTTTTTCGAGTAAACAAATTTTCCTAATCTTTCTGTTCAAGCGCCATCTAC” it is 1.3 RPM ratio (pull-down/input); for “GATGATTGTTCTCCCAGCTGATGAATTGTGCTACTCGAGTAAACAAATTTTCCTAATCTTTCTGTTCAAGCGCCATCTAC” it is 1.09 RPM ratio (pull-down/input).
In the case of “GATGATTGTTCTCCCAGCTGATGAATTTGCACTGTCGAGTAAACAAATTTTCCTAATCTTTCTGTTCAAGCGCCATCTAC”, the binding signal was 0.919 RPM ratio (pull-down/input).
The figure for “GATGATTGTTCTCCCAGCTGATGAATTCTCCCTTTCGAGTAAACAAATTTTCCTAATCTTTCTGTTCAAGCGCCATCTAC” is 0.829 RPM ratio (pull-down/input).
“GATGATTGTTCTCCCAGCTGATGAATTCGTAACTTCGAGTAAACAAATTTTCCTAATCTTTCTGTTCAAGCGCCATCTAC”: the binding signal was 0.902 RPM ratio (pull-down/input).
Consider “GATGATTGTTCTCCCAGCTGATGAATTGTTCAGTTCGAGTAAACAAATTTTCCTAATCTTTCTGTTCAAGCGCCATCTAC”, for which the binding signal was 1.07 RPM ratio (pull-down/input).
